# This list was built around the results that the source calls inconclusive (neither active nor inactive); the mix of calls is not that of the screen. For some assays here: Where the call is inconclusive, the potency comes from a doubtful curve fit. The source made the active and inactive calls. The call rests on the fitted dose curve; in most records, active means well fitted curve in the direction sought with a large enough effect; inconclusive means small, poorly fitted or top-dose-only effect, or another doubt; inactive means no such curve, though single readings can be large; an effect the other way counts as inactive or inconclusive. Square brackets hold non-standard residues; d marks the D form. Peptide text beside a SMILES is read from it. ξ: configuration not given here. ξLac(3-iPr) = CC(C)CC(O)C(=O)O; NMeV = CN[CH](C(=O)O)C(C)C; βAla = NCCC(=O)O
# Tests used:
# [1] = qHTS to identify inhibitors of the type 1 interferon - major histocompatibility complex class I in skeletal muscle: primary screen against the NCATS Mechanism Interrogation Plate v5.0 (MIPE) Libary (AID 1347411); details: iHSKM cells + IFN-b, HiBiT-tagged MHC-I luminescence, 24 h; activity change, negative = inhibition: at 45.8 µM (top of the series); further: potency means the concentration at half of the fitted maximal effect; nearly all actives have a fitted effect of over 65% in size
# Outline: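 Luminescence from HiBiT-tagged endogenous HLA-B*08:01 served as the MHC class I read-out. CRISPR-engineered C25cl48 human myoblasts received 4.0 ng/ml IFN-beta plus compound for 24 hrs, with an 11-point, 1:3 series topping at 46 uM final.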
# [2] = target: Luciferin 4-monooxygenase (Photinus pyralis) (UniProt P08659); test: Primary firefly luciferase (FLuc) qHTS assay for identification of artifact compounds. (AID 1845220); further: nearly all actives have a fitted effect of over 60% in size; further: potency means the concentration at half of the fitted maximal effect;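 on activity change, negative = inhibition: plate controls were DMSO vehicle for no effect and no enzyme for full effect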
# Outline: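 D-luciferin and ATP (10 uM each, final) in Tris acetate buffer pH 7.6 were incubated with compounds for 15 min at room temperature. The reaction was started with 10 nM Photinus pyralis luciferase and luminescence read after 5 min. Percent inhibition was fitted to a 4-parameter Hill equation.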
# [3] = NS1 protein of Zika virus - qHTS assay to identify small molecule inhibitors in human HEK 293 cells (AID 1347053); further: nearly all actives have a fitted effect of over 55% in size; further: potency means the concentration at half of the fitted maximal effect;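 on activity change, negative = inhibition: plate controls were infected untreated cells for no effect and uninfected cells for full effect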
# Outline: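 HEK 293; 20 h pre-culture, 37 C/5% CO2; cpd 1 h pre-infection; ZIKV MR766, MOI = 0.5, 24 h, 37 C; TR-FRET NS1 readout (two anti-NS1 Abs); norm. to no-virus vs infected.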
# [4] = qHTS of pediatric cancer cell lines to identify multiple opportunities for drug repurposing: Primary screen for TC32 cells (AID 1347089); further: on the % scale 0 is the no-effect control and ±100 the full control effect; nearly all actives have a fitted effect of over 60% in size
# Outline: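 TC32 cells, 500-1,000/well in growth medium, compound-treated 48 h at 37 °C; viability from CellTiter-Glo luminescence. Primary screen: MIPE 11-point (0.78 nM–46 µM final), NPC 8-point (0.59 nM–46 µM final); confirmatory at 11-point dilutions.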
# [5] = qHTS of pediatric cancer cell lines to identify multiple opportunities for drug repurposing: Primary screen for A673 cells (AID 1347092); details: A673 Ewing sarcoma viability, CellTiter-Glo ATP luminescence, 48 h; activity change, negative = cytotoxic: at 46 µM (top of the series); further: on the % scale 0 is the no-effect control and ±100 the full control effect; nearly all actives have a fitted effect of over 45% in size
# Outline: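 A673 cells (500-1,000 cells/well) were treated 48 hours at 37 degrees C with compounds at 11-point (0.78 nM to 46 µM) or 8-point (0.59 nM to 46 µM) dilutions. Viability read by CellTiter-Glo luminescence; concentration-response curves fitted.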
# [6] = qHTS of pediatric cancer cell lines to identify multiple opportunities for drug repurposing: Primary screen for BT-37 cells (AID 1347094); further: potency means the concentration at half of the fitted maximal effect;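 on activity change, negative = cytotoxic: plate controls were DMSO for no effect and bortezomib for full effect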
# Outline: (§1)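 CRCs from 8- or 11-point titrations (lowest final 0.59 nM NPC, 0.78 nM MIPE). Cell viability: CellTiter-Glo after 48 h incubation, 15 min room-temperature development, luminescence imaging.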
# [7] = qHTS of pediatric cancer cell lines to identify multiple opportunities for drug repurposing: Primary screen for SK-N-SH cells (AID 1347098); details: SK-N-SH viability, CellTiter-Glo luminescence, 48 h; activity change, negative = cytotoxic: at 57 µM (top of the series); further: potency means the concentration at half of the fitted maximal effect; nearly all actives have a fitted effect of over 65% in size
# Outline: (§2)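 Cells (500-1,000/well) rested 5 h, then received compounds for 48 h; metabolically active cells were measured by CellTiter-Glo luminescence. Final concentrations spanned up to 46 µM (MIPE, 11-point) or 0.59 nM-46 µM (NPC, 8-point) in primary screens, 11-point in follow-ups.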
# [8] = qHTS of pediatric cancer cell lines to identify multiple opportunities for drug repurposing: Primary screen for NB1643 cells (AID 1347099);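 further: plate controls were DMSO neutral control for no effect and bortezomib positive control for full effect; nearly all actives have a fitted effect of over 50% in size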
# Outline: as §1
# [9] = qHTS of pediatric cancer cell lines to identify multiple opportunities for drug repurposing: Primary screen for OHS-50 cells (AID 1347103); further: nearly all actives have a fitted effect of over 40% in size; further: potency means the concentration at half of the fitted maximal effect;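 on activity change, negative = cytotoxic: plate controls were DMSO neutral control for no effect and bortezomib positive control for full effect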
# Outline: as §2
# [10] = test system: Nanoluciferase (engineered Oplophorus gracilirostris luciferase); test: Primary Nanoluciferase (NLuc) qHTS assay for identification of artifact compounds. (AID 1845222); further: potency means the concentration at half of the fitted maximal effect
# Outline: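 Diluted conditioned medium from NLuc-expressing S16 cells treated with compounds for 15 min at room temperature, then Nano-Glo substrate added; luminescence read after 5 min. Percent inhibition versus no-enzyme and DMSO controls fitted to 4-parameter Hill equation.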
# [11] = qHTS of pediatric cancer cell lines to identify multiple opportunities for drug repurposing: Primary screen for MG 63 (6-TG R) cells (AID 1347105); details: MG 63 (6-TG R) viability, CellTiter-Glo, 48 h; activity change, negative = cytotoxic: at 46 µM (top of the series) unless noted; further: potency means the concentration at half of the fitted maximal effect; nearly all actives have a fitted effect of over 50% in size
# Outline: as §1
# [12] = qHTS of pediatric cancer cell lines to identify multiple opportunities for drug repurposing: Primary screen for RD cells (AID 1347104); further: nearly all actives have a fitted effect of over 55% in size; further: potency means the concentration at half of the fitted maximal effect;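 on activity change, negative = cytotoxic: plate controls were DMSO for no effect and bortezomib for full effect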
# Outline: as §1
# MCC-13 = test: qHTS assay to identify novel small-molecules to repurpose for Merkel cell carcinoma treatment (AID 1296009); details: MCC and control cell lines, CellTiter-Glo viability, 72 h; series mostly up to 46 µM; further: nearly all actives have a fitted effect of over 60% in size; further: potency means the concentration at half of the fitted maximal effect; on activity change, negative = cytotoxicity: on the % scale 0 is the no-effect control and ±100 the full control effect
# Outline: (§3)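 Cells were treated for 72 hr at 37 degree celsius with compounds in 8- or 11-point dose response. Viability was read by CellTiter-Glo luminescence, normalized to no-cell (cytotoxicity) and DMSO controls.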
# [13] = qHTS to identify inhibitors of the type 1 interferon - major histocompatibility complex class I in skeletal muscle: primary screen against the NCATS Pharmaceutical Collection (AID 1347407); details: human skeletal muscle cells, IFN-b-induced MHC-I HiBiT luminescence, 24 h; activity change, negative = inhibition: at 45.9 µM (top of the series);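 further: luminescence of HiBiT knocked into endogenous HLA-B as interferon-induced MHC class I level; potency means the concentration at half of the fitted maximal effect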
# Outline: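 Immortalized human myoblasts (C25cl48) with HiBiT knocked into endogenous HLA-B*08:01 were stimulated with 4.0 ng/ml IFN-beta and treated with compounds ([…] top 46 uM) for 24 hrs at 37 C. HiBiT lytic luminescence read.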
# MKL-1 = test: qHTS assay to identify novel small-molecules to repurpose for Merkel cell carcinoma treatment (AID 1296009); details: MCC and control cell lines, CellTiter-Glo viability, 72 h; activity change, negative = cytotoxicity: at 46 µM (top of the series); further: nearly all actives have a fitted effect of over 60% in size; further: potency means the concentration at half of the fitted maximal effect; on activity change, negative = cytotoxicity: on the % scale 0 is the no-effect control and ±100 the full control effect
# Outline: as §3
# MCC-26 = test: as above; details: MCC and control cell lines, CellTiter-Glo viability, 72 h; series mostly up to 46 µM
# Outline: as §3
# [14] = qHTS of pediatric cancer cell lines to identify multiple opportunities for drug repurposing: Primary screen for NB-EBc1 cells (AID 1347095); further: potency means the concentration at half of the fitted maximal effect
# Outline: as §1
# [15] = qHTS of pediatric cancer cell lines to identify multiple opportunities for drug repurposing: Primary screen for LAN-5 cells (AID 1347100); further: potency means the concentration at half of the fitted maximal effect
# Outline: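 Viability after 48 h compound treatment at 37C, 500-1,000 cells/well, read as ATP luminescence with CellTiter-Glo. Primary screens used 11-point (MIPE, 0.78 nM-46 µM) or 8-point (NPC, 0.59 nM-46 µM) final concentrations; follow-up screens used 11-point dilutions.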
# Tags describe the fitted curve by direction and shape.
smiles,measurement,setting,value
Cc1ccc(NC(=O)c2ccc(CN3CC[C@H](N(C)C)C3)c(C(F)(F)F)c2)cc1Nc1nccc(-c2cncnc2)n1,Potency,[1],active: 16.1 µM
CNc1nc(Nc2ccc(C(=O)N3CCOCC3)cc2OC)nc2[nH]cc(Cl)c12,Potency,[2],"inconclusive: 33.8 µM [inhibitor, single point]"
N[C@@H](CSSC[C@H](N)C(=O)O)C(=O)O,"activity change, negative = inhibition",[3],inactive: -26.2% [at 0.593 µM]
same,"activity change, negative = cytotoxic",[4],inactive: 5.9% [at 0.594 µM]
same,"activity change, negative = cytotoxic",[5],inactive: -1.55% [at 0.597 µM]
same,"activity change, negative = cytotoxic",[6],inactive: 3.9% [at 0.745 µM]
same,Potency,[7],"inconclusive: 0.194 µM [cytotoxic, single point]"
same,"activity change, negative = cytotoxic",[8],inactive: -5.83% [at 0.597 µM]
same,"activity change, negative = cytotoxic",[9],inactive: 6.93% [at 0.73 µM]
Cn1ncc(Cl)c1-c1cc(C(=O)NC(CN)Cc2ccc(F)c(F)c2)oc1Cl (stereo unspecified),Potency,[1],"inconclusive: 2.62 µM [inhibitor, partial curve]"
CC(F)(F)CN1CCOc2c(nn(-c3ccccc3Cl)c2-c2ccc(Cl)cc2)C1=O,Potency,[10],"inconclusive: 26.9 µM [inhibitor, partial curve, poor fit]"
O=C(c1ccc(F)c(F)c1Nc1ccc(I)cc1F)N1CC(O)([C@@H]2CCCCN2)C1,Potency,[1],"inconclusive: 26.2 µM [inhibitor, single point]"
CCn1c(=O)c(-c2ccn[nH]2)cc2c(C)nc(N)nc21,Potency,[1],"inconclusive: 1.86 µM [inhibitor, full curve]"
Cc1cc(N=Nc2ccc(S(=O)(=O)Nc3ccccn3)cc2)c(N)cc1O,Potency,[2],"inconclusive: 19 µM [inhibitor, partial curve]"
same,Potency,[10],"inconclusive: 10.7 µM [inhibitor, partial curve]"
CCC(=O)c1cc(-c2ccc(Cl)cc2)n(-c2ccc(S(N)(=O)=O)cc2)c1C,Potency,[2],inactive
CC(C)CC1OC(=O)C2CCCN2C(=O)CCNC(=O)C(Cc2ccccc2)NC(=O)C(C(C)C)N(C)C(=O)C(C(C)C)N(C)C1=O (stereo unspecified) (cyclo([ξLac(3-iPr)][NMeV][NMeV]F[βAla]P); configuration not given here),Potency,[10],inactive
CCCCCCCOc1cc2c(cc1/C(C)=C/c1ccc(C(=O)O)cc1)C(C)(C)CCS2(=O)=O,Potency,[2],inactive
C(=C\c1ccccc1)/CN1CCN(C(c2ccccc2)c2ccccc2)CC1,Potency,[11],"inconclusive: 26.6 µM [cytotoxic, single point]"
CN1CCc2cccc3c2[C@H]1Cc1ccc(O)c(O)c1-3,Potency,[12],"inconclusive: 26.6 µM [cytotoxic, single point]"
same,Potency,MCC-13,"inconclusive: 29.9 µM [inhibitor, single point]"
CCN(CC)CCOc1ccc2c(c1)C(=O)c1cc(OCCN(CC)CC)ccc1-2,Potency,[13],"inconclusive: 13.3 µM [inhibitor, partial curve]"
same,Potency,MCC-13,"inconclusive: 21.1 µM [inhibitor, single point]"
same,Potency,MKL-1,active: 13.3 µM
C[C@@H](O[C@H]1OCCN(Cc2n[nH]c(=O)[nH]2)[C@H]1c1ccc(F)cc1)c1cc(C(F)(F)F)cc(C(F)(F)F)c1,Potency,MCC-26,"inconclusive: 26.6 µM [inhibitor, single point]"
same,Potency,MKL-1,"inconclusive: 23.7 µM [inhibitor, single point]"
CCN(CC)CCCCNc1ncc2c(n1)N(C)C(=O)N(c1c(Cl)c(OC)cc(OC)c1Cl)C2,Potency,[3],"inconclusive: 37.2 µM [inhibitor, single point]"
COc1ccc(Cc2cnc(N)nc2N)cc1OC,Potency,[12],inactive
Cc1ccccc1-n1c([C@H](C)Nc2nc(N)nc3nc[nH]c23)nc2cccc(C)c2c1=O,Potency,[2],inactive
CCOC(=O)c1cnn(-c2ccccc2)c1NC(=O)c1cc2nc(-c3ccco3)cc(C(F)(F)Cl)n2n1,Potency,[2],inactive
Cc1cc(C)c(CNC(=O)c2cc(-c3ccc(CN4CCOCC4)cc3)cc3c2cnn3C2CCCC2)c(=O)[nH]1,Potency,[10],"inconclusive: 21.3 µM [inhibitor, single point]"
CO[C@H]1C=CO[C@@]2(C)Oc3c(C)c(O)c4c(O)c(c(/C=N/N5CCN(C)CC5)c(O)c4c3C2=O)NC(=O)/C(C)=C\C=C[C@H](C)[C@H](O)[C@@H](C)[C@@H](O)[C@@H](C)[C@H](OC(C)=O)[C@@H]1C,Potency,[7],"inconclusive: 43.3 µM [cytotoxic, single point]"
same,Potency,MKL-1,active: 21.1 µM
CC[N+](CC)(CC)CCOc1ccc(/C=C/c2ccccc2)cc1,Potency,[6],active: 15.5 µM
same,Potency,[14],"inconclusive: 33.5 µM [cytotoxic, single point]"
same,Potency,[15],"inconclusive: 29.9 µM [cytotoxic, single point]"
same,Potency,[9],active: 3.47 µM
same,Potency,[11],"inconclusive: 33.5 µM [cytotoxic, single point]"
same,Potency,[13],"inconclusive: 13.3 µM [inhibitor, partial curve]"
same,Potency,MCC-26,inactive
same,Potency,MKL-1,active: 2.99 µM
